Counter-ions that a name gives are not always drawn. Whole data set: some 2,000 compounds, median “fractional viability relative to vehicle” near 0.91, cut for the lowest 2% near 0.045. The list shows a part of the results.
Test system: TYKNU
Test: fractional viability relative to vehicle; TYKNU is a high-grade serous ovarian cancer line; higher = less growth inhibition
Conditions: 72 h
In short: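 TYKNU control cells or lentiCRISPRv2 knockout derivatives were plated at 500 cells per well in duplicate into drug-stamped 384-well plates holding a ~2100-compound library at 2 or 10 μM. Culture was in RPMI 1640 with 10% FBS at 37 °C in 5% CO2, with 72 h of drug treatment. Viability was measured by Cell Titer Glo luminescence, and the averaged duplicate treatment wells were normalised to duplicate control wells at the same plate position.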

[1] = 2uM, genotype: DNM1L knockout (sgDNM1L #1)
[2] = 2uM, genotype: sgCTRLA1 (non-targeting control)
[3] = 10uM, genotype: DNM1L knockout (sgDNM1L #1)
[4] = 10uM, genotype: sgCTRLA1 (non-targeting control)

Structure (SMILES)	fractional viability [1]	fractional viability [2]	fractional viability [3]	fractional viability [4]
O=C1Nc2ccccc2/C1=C1/Nc2ccccc2C1=O [Indirubin]	0.942	1.14	0.882	1.04
Nc1cccc2c1C(=O)N(C1CCC(=O)NC1=O)C2=O (configuration not stated) [Pomalidomide]	0.953	1.05	0.798	1.08
Oc1ccc(OC2CCCCO2)cc1 (configuration not stated) [Deoxyarbutin]	1.02	0.992	0.845	1.02
OCCOCCN1CCN(C2=Nc3ccccc3Sc3ccccc32)CC1 [Quetiapine Fumarate]	0.888	1.14	0.71	0.893
Cc1nc(Nc2cnn(C3CCNCC3)c2)nc2c1N(C)C(=O)c1cc3ccccc3cc1N2C	0.723	0.802	0.376	0.51
Cc1cc(C(=O)NOCCO)c(Nc2ccc(I)cc2F)n(C)c1=O	0.245	0.222	0.204	0.201
CC1(C)S[C@@H]2[C@H](NC(=O)[C@H](N)c3ccc(O)cc3)C(=O)N2[C@H]1C(=O)O [Amoxicillin Sodium]	0.976	0.967	0.809	1.09
CC1(C)S[C@@H]2[C@H](NC(=O)[C@H](N)c3ccc(O)cc3)C(=O)N2[C@H]1C(=O)O [Amoxicillin]	1.08	1.16	0.888	1.17
COc1cccc2c1C(=O)c1c(O)c3c(c(O)c1C2=O)C[C@@](O)(C(=O)CO)C[C@@H]3O[C@H]1C[C@H](N)[C@H](O)[C@H](C)O1 [Doxorubicin (Adriamycin)]	0.377	0.212	0.437	0.323
O=C([C@@H](Cc1cccc(C(F)(F)F)c1)NS(=O)(=O)c1cc(F)c2c(c1)CCNC2)N1CCCC1	0.927	1.04	0.863	0.888
O=C(C=Cc1ccccc1)NC(NC(=S)Nc1ccc(Cl)cc1)C(Cl)(Cl)Cl (configuration not stated)	0.927	1.02	0.239	0.257
Nc1nc(Cl)nc2c1ncn2[C@H]1C[C@H](O)[C@@H](CO)O1 [Cladribine]	0.38	0.433	0.212	0.247
Oc1ccc([C@H]2COc3cc(O)ccc3C2)cc1 [Equol]	0.976	1.04	0.877	1.05
Fc1ccc(C(c2ccc(F)cc2)N2CCN(C/C=C/c3ccccc3)CC2)cc1 [Flunarizine 2HCl]	0.928	1.06	0.802	0.885
O=c1cc(-c2cccc3c2Sc2ccccc2S3)oc(N2CCOCC2)c1	1.22	1.06	0.855	1.03
Cc1ccc(Nc2c(F)cccc2Cl)c(CC(=O)O)c1 [Lumiracoxib]	1.17	1.14	0.88	0.953
N#Cc1c(O)c2c(-c3ccc(-c4ccccc4O)cc3)csc2[nH]c1=O	0.835	1.09	0.927	0.985
Cc1nc2ccc(-n3ncc(C(=O)c4cc5ccccc5[nH]4)c3N)cc2[nH]1	0.935	0.923	0.958	0.819
CCCCC(=O)O[C@H]1CC[C@H]2[C@@H]3CCc4cc(O)ccc4[C@H]3CC[C@]12C [Estradiol valerate]	0.914	1.12	0.341	0.406
Cc1[nH]c2ccccc2c1CCNC(=O)c1cccs1	0.862	1.02	0.91	0.829

Structure (SMILES)	fractional viability [1]	fractional viability [2]	fractional viability [3]	fractional viability [4]
N=C(N)c1ccc(OCCCCCOc2ccc(C(=N)N)cc2)cc1 [Pentamidine]	1.02	1.08	0.434	0.338
CO/N=C(\C(=O)N[C@@H]1C(=O)N2C(C(=O)OCOC(=O)C(C)(C)C)=C(/C=C\c3scnc3C)CS[C@H]12)c1csc(N)n1 [Cefditoren Pivoxil]	1.01	1.13	0.979	1.03
CCCc1cc(=O)[nH]c(=S)[nH]1 [Propylthiouracil]	0.915	1.12	1.02	1.02
Cc1onc(-c2ccccc2)c1-c1ccc(S(N)(=O)=O)cc1 [Valdecoxib]	0.988	1.15	0.795	0.992
COc1ccc(CCN(C)CCCC(C#N)(c2ccc(OC)c(OC)c2)C(C)C)cc1OC (configuration not stated) [Verapamil HCl]	0.776	1.15	0.8	0.952
O=C(Nc1ccccc1)c1cc([N+](=O)[O-])ccc1Cl	1.2	1.12	0.887	0.989
C=C1C(=O)O[C@@H]2/C=C(\C)CC/C=C(\C)CC[C@@H]12 [Costunolide]	0.946	1.05	0.226	0.249
C[C@]12CCC(=O)C=C1CC[C@@H]1[C@@H]2[C@@H](O)C[C@@]2(C)[C@H]1CC[C@]2(O)C(=O)CO [Hydrocortisone]	1.09	1.12	1.07	1.06
C=CC(=O)Nc1cccc(C)c1Nc1ncc2cc(-c3c(Cl)c(OC)cc(OC)c3Cl)ccc2n1	0.616	0.744	0.173	0.202
O=C(CCc1ccc(O)cc1)c1c(O)cc(O)cc1O[C@@H]1O[C@H](CO)[C@@H](O)[C@H](O)[C@H]1O [Phlorizin]	0.791	1.09	0.89	0.975
COc1ccccc1C(=O)Nc1cc2c(cc1N1CCCC1)n(C)c(=O)n2C	1.05	1.07	1.02	0.778
CN(N=O)C(=O)NC1C(O)OC(CO)C(O)C1O (configuration not stated) [Streptozotocin (STZ)]	1.1	1.2	0.905	1.2
Oc1ncnc2[nH]ncc12 [Allopurinol]	0.988	1.05	0.917	0.912
C=C[C@]1(C)C[C@@H](OC(=O)CS[C@@H]2C[C@H]3CC[C@@H](C2)N3C)[C@]2(C)[C@H](C)CC[C@]3(CCC(=O)[C@H]32)[C@@H](C)[C@@H]1O [Retapamulin]	0.735	0.778	0.486	0.466
C[N+]1(C)[C@@H]2CC[C@H]1C[C@@H](OC(=O)C(O)c1ccccc1)C2 (some centres not stated) [Homatropine Methylbromide]	1.04	1.07	0.761	1.02
COC(=O)C1=C(C)NC(C)=C(C(=O)OCCN2CCN(C(c3ccccc3)c3ccccc3)CC2)C1c1cccc([N+](=O)[O-])c1 (configuration not stated) [Manidipine 2HCl]	0.91	1.13	0.385	0.876
COC(=O)C1=C(C)NC(C)=C(C(=O)OCCN2CCN(C(c3ccccc3)c3ccccc3)CC2)C1c1cccc([N+](=O)[O-])c1 (configuration not stated) [Manidipine]	0.854	1.13	0.28	0.562
CC(C)N(C[C@H]1O[C@@H](n2cnc3c(N)ncnc32)[C@H](O)[C@@H]1O)[C@H]1C[C@@H](CCc2nc3cc(C(C)(C)C)ccc3[nH]2)C1	0.89	1.02	0.757	1.07
COC(c1ccccc1)(c1ccccc1)[C@H](Oc1nc(C)cc(C)n1)C(=O)O [Ambrisentan]	0.892	1.16	0.88	1.14
O=C(/C=C/c1ccc2ccccc2n1)c1ccncc1	0.0494	0.0683	0.0258	0.0162

Structure (SMILES)	fractional viability [1]	fractional viability [2]	fractional viability [3]	fractional viability [4]
CC(=O)Nc1ccccc1 [Acetanilide]	0.896	1.08	0.878	1.14
Cc1cc(C(N)=O)ccc1-n1c(CCC(=O)O)ccc1-c1ccc(-n2ccnc2)cc1	0.883	0.888	0.745	0.764
COC(=O)C[C@H](NC(=O)[C@H](C)NC(=O)[C@@H](NC(=O)OCc1ccccc1)C(C)C)C(=O)CF	0.89	1.14	0.837	1.1
O=C(N/N=C/c1cc(O)c(O)cc1O)c1cc2ccccc2cc1O [Dyngo-4a]	0.912	1.05	0.857	0.867
CC(C(=O)O)c1ccc2c(c1)Cc1cccnc1O2 (configuration not stated) [Pranoprofen]	1.05	1.11	0.893	1.15
Clc1ccc(NN=C(c2ccccc2)c2ccccn2)nc1	0.116	0.0468	0.0355	0.0108
C[N+]1(C)[C@@H]2C[C@@H](OC(=O)C(O)(c3cccs3)c3cccs3)C[C@H]1[C@@H]1O[C@@H]12 [Tiotropium Bromide hydrate]	1.03	0.998	0.94	0.995
O=C[C@H](O)[C@@H](O)[C@H](O)CO [Xylose]	1	1.17	0.965	1.04
CC(=O)O[C@]1(C(C)=O)CC[C@H]2[C@@H]3C[C@H](C)C4=CC(=O)C=C[C@]4(C)[C@@]3(F)[C@@H](O)C[C@@]21C [Fluorometholone Acetate]	0.938	1.07	0.907	1
COc1ccc([C@@H]2CC(=O)c3c(O)cc(O[C@@H]4O[C@H](CO[C@@H]5O[C@@H](C)[C@H](O)[C@@H](O)[C@H]5O)[C@@H](O)[C@H](O)[C@H]4O)cc3O2)cc1O [Hesperidin]	1.06	1.03	0.99	1.01
O=c1cc(N2CCOCC2)oc2c(-c3cccc4c3sc3ccccc34)cccc12	0.678	0.761	0.425	0.47
CC(C)(C(=O)O)c1ccc(C(O)CCCN2CCC(C(O)(c3ccccc3)c3ccccc3)CC2)cc1 (configuration not stated) [Fexofenadine HCl]	1.06	1.19	0.89	0.99
Cc1cc(NC(=O)Nc2ccc(N(C)C)cc2)c2cc(F)cc(F)c2n1	0.844	1.04	0.801	0.614
Cc1onc(-c2c(Cl)cccc2Cl)c1C(=O)N[C@@H]1C(=O)N2[C@@H]1SC(C)(C)[C@@H]2C(=O)O [Dicloxacillin Sodium]	0.943	1.02	0.986	1.06
Cn1cc(-c2ccc3ncc(Cc4ccc5ncccc5c4)n3n2)cn1	1.11	1.06	0.992	1.17
CC1C(=O)OC2C(O)C34C5CC(C(C)(C)C)C36C(OC(=O)C6O)OC4(C(=O)O5)C12O (configuration not stated) [Ginkgolide B]	1.06	1.12	0.987	1.18
CN(C)/N=N/c1[nH]cnc1C(N)=O [Dacarbazine]	1.09	1	1.07	1.2
Cc1oncc1C(=O)Nc1ccc(C(F)(F)F)cc1 [Leflunomide]	0.985	1.08	0.599	0.768

Reference: the supplement of paper PMC5919970
